Data reported in PubChem BioAssay AID686970 (National Center for Advancing Translational Sciences (NCATS), 2013).
Screen size: about 360,000 compounds; about 6,000 (1.7%) were called active. The shares of active, inactive and inconclusive entries below differ from those in the screen. Calls follow the shape of the dose curve; as a rule, active = well fitted cell-killing curve with a large enough effect; inconclusive = small, poorly fitted or top-dose-only effect, or effect the other way; inactive = flat fitted curve, though single readings scatter. No potency is given beside an inconclusive call; the fits are too rough.

Test: qHTS for induction of synthetic lethality in tumor cells producing 2HG: qHTS for the HT-1080-NT fibrosarcoma cell line;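 also: NT is the 2HG producing partner of a matched IDH1 knockdown line; nearly all actives have a fitted effect of over 55% in size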;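 as to activity, negative = less viability: 0% = DMSO-treated cells and -100% = media-only wells without cells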
Conditions: HT-1080-NT fibrosarcoma viability, CellTiter-Glo ATP luminescence, 48 h; activity, negative = less viability: at 46.1 µM (top of the series) unless noted
How it was run: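 750 cells/well, RPMI + 5% FBS; 2 h settle, compound pin-transfer, 48 h at 37 degrees C. CellTiter-Glo 10 min RT, luminescence. Normalized to DMSO and media-only wells.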
Potency is read from the fitted curve at half-maximal effect; tags tell the direction and shape of the fitted curve.

| SMILES | Potency | activity, negative = less viability |
| --- | --- | --- |
| O=C(CSc1nc2ncc(Cl)cc2[nH]1)Nc1ccccc1-c1ccccc1 | inconclusive [cytotoxic, single point] |  |
| Cc1nc(Nc2nc3c(c(=O)[nH]2)CCC3)nc2ccccc12 | inconclusive [cytotoxic, single point] |  |
| CSc1c(CC(=O)Nc2ccc(F)cc2)n(Cc2ccccc2)c2ccccc12 | inconclusive [cytotoxic, single point] |  |
| O=S(=O)(CC=CCS(=O)(=O)c1ccccc1)c1ccccc1 |  | inactive: -2.65% |
| O=C1OCCN1C(=O)[C@H]1[C@H](c2ccc([N+](=O)[O-])cc2)C(c2ccccc2)=NN1c1ccc(Br)cc1 |  | inactive: -10.5% |
| O=C(N/N=C/c1ccc([N+](=O)[O-])o1)c1ccncc1 | inconclusive [cytotoxic, single point] |  |
| CCN(c1ccccc1)S(=O)(=O)c1cccc(C(=O)NCC(c2ccc(OC)cc2)N2CCCCC2)c1 (centres undefined) | inconclusive [cytotoxic, single point] |  |
| O=C(c1ccc(Cn2cc(Br)cn2)cc1)N1CCN(c2ccccc2)CC1 | inconclusive [cytotoxic, single point] |  |
| Nc1ncnc2c(C3OC(CO)C(O)C3O)c[nH]c12 (centres undefined) | active: 0.231 µM |  |
| COc1ccc([N+](=O)[O-])cc1CN1CCN(c2ncc(Cc3ccccc3)cn2)CC1 | inconclusive [cytotoxic, single point] |  |
| C=CCn1c(SCC(=O)Nc2nccs2)nnc1-c1cc2cccc(OC)c2o1 | inconclusive [cytotoxic, partial curve] |  |
| CCN(CC(=O)Nc1ccccc1OC)C(=O)c1cc(-c2ccccc2)nn1-c1ccccc1 | inconclusive [cytotoxic, single point] |  |
| CC1=C(C(=O)N(C)C)CC(CC(=O)NCCCN(C)C)C(=O)N1Cc1ccc(F)cc1 (centres undefined) | inconclusive [rising, partial curve, poor fit] |  |
| C[C@H](CO)N1C[C@H](C)[C@@H](CN(C)S(=O)(=O)c2ccccc2)Oc2ccc(NC(=O)Nc3ccc(C(F)(F)F)cc3)cc2C1=O | inconclusive [cytotoxic, partial curve] |  |
| Cc1[nH]n(-c2ccccc2)c(=O)c1C(c1ccc(C(=O)O)cc1)c1c(C)[nH]n(-c2ccccc2)c1=O |  | inactive: 0.224% |
| NC(=O)N/N=C/c1cn(-c2ccccc2)nc1-c1ccccc1 | inconclusive [cytotoxic, partial curve, poor fit] |  |
| COc1ccc(-c2nc3c4ccccc4ccn3c2Cc2cccc(Cl)c2)cc1OC | inconclusive [cytotoxic, single point] |  |
| CCc1ccc([C@H]2[C@@H]3C(=O)C[C@@H]4C(=O)N(c5ccccc5)C(=O)[C@@H]4[C@@H]3CN2S(=O)(=O)c2ccc(C)cc2)cc1 | inconclusive [rising, single point] |  |
| CN(C)C(CNc1ncnc2sccc12)c1ccccc1 (centres undefined) |  | inactive: -2.1% |
| COc1cc(OC)nc(C(NC(=O)C2CCN(Cc3c[nH]c4ccccc34)CC2)c2ccc(Cl)cc2)n1 (centres undefined) | active: 5.8 µM |  |
| Cc1nc2ccc(C(=O)Nc3cccc(OCC(=O)N(C)C)c3)cn2c1N(C)CC1CCCCC1 | inconclusive [cytotoxic, single point] |  |
| O=C(CSc1nn(-c2ccccc2)c(=S)s1)NC(=O)NCc1ccco1 |  | inactive: 0.887% [at 9.24 µM] |
| O=[N+]([O-])c1cc(/C=N/O)ccc1N1CCCC1 |  | inactive: -9.65% |

| SMILES | Potency | activity, negative = less viability |
| --- | --- | --- |
| Nc1nc(CSc2nnnn2-c2ccccc2)nc(N2CCCc3ccccc32)n1 | inconclusive [cytotoxic, single point] |  |
| C/C(=N\NC(=O)c1ccc(O)cc1)c1cccc(NC(=O)c2ccc(Cl)cc2)c1 |  | inactive: -19% |
| CC(=O)Nc1ccc(-c2ccnc3c2CC(C)(C(=O)Nc2cccc(C(C)=O)c2)O3)cc1 (centres undefined) |  | inactive: 3.88% |
| Cc1cccc(CSC(Nc2ccc(F)cc2)=C(C#N)C#N)c1 |  | inconclusive: -22.8% [cytotoxic] |
| CCOCc1c(C(=O)N2CCN(CCOc3ccc(Cl)cc3)CC2)oc2ccccc12 |  | inconclusive: -31.7% [cytotoxic] |
| CC1CCCN(C(=O)N2c3ccccc3Sc3ccccc32)C1 (centres undefined) | inconclusive [cytotoxic, single point] |  |
| CC(C)c1ccc2c(c1)C(N1CCN(C)CC1)Cc1cccnc1S2 (centres undefined) | inconclusive [cytotoxic, single point] |  |
| CCC(C(=O)NCCCN1CCN(C)CC1)n1nc(C)n2c(cc3occc32)c1=O (centres undefined) |  | inactive: 5.51% |
| COc1ccc2[nH]c(=O)c3c(c2c1)OC(C)(C)C=C3 | inconclusive [cytotoxic, single point] |  |
| CCOc1ccc(/C=C2\SC(N3CCc4ccccc4C3)=NC2=O)cc1 | inconclusive [cytotoxic, single point] |  |
| CCOc1ccc(NC(=O)CN2CCN(CC(=O)Nc3ccc(OC)cc3OC)CC2)cc1 | inconclusive [cytotoxic, partial curve] |  |
| Cc1ccc(Nc2cc(C)nc(-c3ccccc3O)n2)cc1 | inconclusive [cytotoxic, single point] |  |
| COc1cccc(NC(=O)CN(C)C(=O)c2cn(-c3ccccc3)nc2-c2cccs2)c1 | inconclusive [cytotoxic, partial curve] |  |
| CC(=O)Nc1n[nH]c(=S)s1 |  | inconclusive: 3.04% [cytotoxic] |
| CC(C)(C)c1ccc2c(c1)C(=O)c1ccccc1C2=O |  | inactive: -16.6% |
| COc1ccc(-c2ccc(SCC(=O)NCc3ccc4c(c3)OCO4)nn2)cc1OC | inconclusive [cytotoxic, partial curve] |  |
| CC(C)(C)c1ccc(C(=O)Cn2nc(C(=O)O)c3ccccc3c2=O)cc1 | inconclusive [rising, single point] |  |
| C/C(=N\N1C(=O)c2ccccc2NC1c1ccco1)c1ccccc1O (centres undefined) | inconclusive [cytotoxic, partial curve] |  |
| Cc1cc(C)c(S(=O)(=O)N2CCN(c3ccccn3)CC2)c(C)c1 |  | inactive: -13.9% |
| CCN(CC)CCCNC(=S)N(Cc1cccs1)Cc1cc2cc3c(cc2[nH]c1=O)OCCO3 | inconclusive [cytotoxic, single point] |  |
| CCOc1ccc(-c2nn3c(-c4ccc(F)cc4)nnc3s2)cc1 |  | inactive: 2.95% |
| COc1cc(S(=O)(=O)NCc2ccncc2)ccc1Br | inconclusive [cytotoxic, single point] |  |
| COC(=O)[C@@]12C[C@@H](CC(=O)NCc3cccc4ccccc34)C(=O)N(Cc3ccccc3)C1=CCC(C)(C)C2 | inconclusive [cytotoxic, single point] |  |

| SMILES | Potency | activity, negative = less viability |
| --- | --- | --- |
| CN1C(C(=O)NCCc2cccs2)CC2Cn3c(nc4cc(Cl)c(Cl)cc43)C21 (centres undefined) |  | inactive: 7.26% |
| O=C(O)COc1ccc(Br)cc1CP(=O)(c1ccccc1)c1ccccc1 |  | inactive: -5.57% |
| CC(C)c1ccc(OCC(=O)NNC(=S)NC(=O)c2ccco2)c(Br)c1 |  | inactive: -10.9% |
| Oc1[nH]c2ccccc2c1C=Nc1ccccc1 |  | inactive: -2.84% |
| O=C(Cc1ccsc1-c1ccccc1)NO |  | inconclusive: -55.6% |
| Cc1cccc(Nc2nc(N)nc(CCl)n2)c1 | active: 3.66 µM |  |
| Cc1cc(-c2nc(C)c(C(=O)NN)s2)no1 | inconclusive [cytotoxic, partial curve] |  |
| O=C(Nc1cccc(F)c1)c1cccnc1NCCc1ccccc1 | inconclusive [cytotoxic, single point] |  |
| O=C(N/N=C/c1cc(Br)ccc1O)c1cccc(N2CCCC2=O)c1 | inconclusive [cytotoxic, partial curve] |  |
| CC(C)(C)c1ccc(C(=O)N/N=C/c2ccccn2)cc1 | inconclusive [cytotoxic, partial curve] |  |
| CC(=O)Nc1nnc(CSCc2ccccc2F)s1 |  | inactive: -4.88% |
| COc1ccc(Cl)cc1-c1nc(-c2ccc(NC(=O)c3ccncc3)cc2)no1 | inconclusive [rising, full curve] |  |
| Cc1cn([C@H]2C[C@H](O)[C@@H](CCC(=O)NCc3ccccc3)O2)c(=O)[nH]c1=O |  | inactive: 9.89% |
| N#CC1(Nc2ccc(S(N)(=O)=O)cc2)CCCC1 | inconclusive [cytotoxic, single point] |  |
| Cc1ccc(Cl)cc1N1CCN(C(=O)COc2ccc3c(c2)CCC3)CC1 | inconclusive [cytotoxic, single point] |  |
| Cc1ccc(-c2nc3ccccc3[nH]2)cc1N | inconclusive [cytotoxic, single point] |  |
| Cc1cc(N)n(-c2ccc3ccccc3c2)n1 |  | inactive: -17.2% |
| COc1cccc(C(=O)/C=C/c2ccc(OCC#N)c(OC)c2)c1 | inconclusive [cytotoxic, single point] |  |
| Cn1c(=O)c2cc(NC(=O)Cc3cccc4ccccc34)ccc2n1-c1ccccc1 | inconclusive [cytotoxic, partial curve] |  |
| COc1ccc2nc3cc(Cl)ccc3c(Nc3cc(C(C)C)c(O)cc3C)c2c1 | active: 20.6 µM |  |
| Cn1c(CCN2CCN(c3ccccn3)CC2)nc2cc(NS(=O)(=O)c3ccc(Cl)cc3)ccc21 | inconclusive [cytotoxic, single point] |  |
| CCOC(=O)c1c(C)n(-c2ccc(C)cc2)c2ccc(OCC(O)CN3CCN(C)CC3)cc12 (centres undefined) | active: 20.6 µM |  |
| C=CCNC(=O)C1CC(=O)N(c2ccc(OCC(=O)N3CCCC3)cc2)C1 (centres undefined) |  | inconclusive: -10.2% [cytotoxic] |
